Measured values published in patent publication US20230072897A1, “ANTI-B7-H4 ANTIBODY-DRUG CONJUGATE AND MEDICINAL USE THEREOF” (SHANGHAI HANSOH BIOMEDICAL CO., LTD., priority 2019, published 2023).

Target: T1, human huB7-H4-His protein (Homo sapiens, UniProt Q7Z7D3)
T1 construct: made in house; host or cells: 293T cells (pTT5 vector)
T1 sequence (Q7Z7D3 with tags, fused parts or gaps): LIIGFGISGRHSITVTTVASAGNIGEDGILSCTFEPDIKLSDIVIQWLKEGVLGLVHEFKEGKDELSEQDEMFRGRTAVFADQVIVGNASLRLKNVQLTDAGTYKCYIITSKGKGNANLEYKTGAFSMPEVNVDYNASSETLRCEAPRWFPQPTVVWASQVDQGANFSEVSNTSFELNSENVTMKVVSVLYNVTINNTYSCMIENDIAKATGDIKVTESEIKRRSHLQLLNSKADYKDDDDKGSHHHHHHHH
Assay: Affinity kinetics experiment (Biacore T200)
Assay type: binding
Description: The Biacore method is a generally acknowledged method for objectively detecting the affinity and kinetics between proteins. The affinity and binding kinetics of the antibodies to be tested of the present invention were analyzed by Biacore T200 (GE). The anti-B7-H4 antibodies to be tested of the present invention were covalently linked to CM5 (GE) chips by using the kit provided by Biacore and the NHS standard amino coupling method. Then 50 nM of human huB7-H4-His protein diluted in the same buffer was injected at a flow rate of 10 uL/min. After the injection, the samples were all regenerated with the regeneration reagent in the kit. The antigen-antibody binding kinetics was tracked for 3 minutes and the dissociation kinetics was tracked for 10 minutes. The obtained data were analyzed with a 1:1 (Langmuir) binding model by using BIAevaluation software of GE.

B1: hu1C9: humanized anti-B7-H4 antibody, heavy chain SEQ ID NO: 41, light chain SEQ ID NO: 42 (antibody)
heavy: EVQLVQSGAEVKKPGASVKVSCKASGDTFTTYWMNWVRQAPGQRLEWMGGIYLNRGSSEYNEKFKGRVTLTVDTSASTAYMELSSLRSEDTAVYYCARDSRFSYWGQGTLVTVSS[no letters for human IgG1 constant region]
light: DIQMTQSPSSLSASVGDRVTITCKASQDVSTAVAWYQQKPGKAPKLLISSASYRYTGVPSRFSGSGSGTDFTFTISSLQPEDIATYYCQQHYNTPLTFGGGTKVEIKRTVAAPSVFIFPPSDEQLKSGTASVVCLLNNFYPREAKVQWKVDNALQSGNSQESVTEQDSKDSTYSLSSTLTLSKADYEKHKVYACEVTHQGLSSPVTKSFNRGEC
modifications: A synthetic hu1C9HC; A synthetic hu1C9 LC
Affinity to the human B7-H4 antigen protein (in words) (Biacore): strong affinity
Dissociation rate kd (antibody on CM5 chip, 50 nM huB7-H4-His, 1:1 (Langmuir) model): 1e-05 s⁻¹
